Measured values taken from the supplement of paper PMC4723716.
± gives the uncertainty stated by the source. Whole data set: some 9,900 compounds, median “viability index relative to DMSO control” near 1, cut for the lowest 2% near 0.85. The list shows a part of the results.

System: Plasmodium falciparum NF54 stage V gametocytes
Experiment: viability index relative to DMSO control (fraction); higher = less gametocyte killing
Conditions: 2.5 µM, incubation time: 72 h
Procedure, shortened: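 In 1,536-well plates, 10 µl of serum-free medium holding P. falciparum NF54 stage V gametocytes (0.75% gametocytemia, 1.25% hematocrit) received compound at 2.5 µM for 72 hr at 37°C in low oxygen. After one to two hours with 3 µl of 2.5 µM MitoTracker Red CMXRos containing 0.13% saponin, red particles of 20–70 µm2 were counted in a single field per well. Viability index is reported as the particle count over the plate mean of wells treated with solvent only.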

[1] = library set: Broad Institute DOS

Structure (SMILES) | viability index [1] | viability index (library set: Broad Institute Blood Stage)
COC(=O)C[C@H]1CC[C@H]2[C@@H](COc3ccc(NC(=O)Nc4c(C)noc4C)cc3C(=O)N2C)O1 | 1.02 ± 0.016 | –
CN1c2ccc(-c3ccccc3)cc2[C@@H]2[C@@H](CCN2C(=O)NC2CCCCC2)[C@H]1CO | 0.94 ± 0.12 | –
N#C[C@@H]1N[C@@H](CO)[C@@H]1c1ccc(C#CC2CCCCC2)cc1 | 0.997 ± 0.033 | –
O=C(c1cnccn1)N1CC(=O)N2[C@H](C1)[C@@H](c1ccc(C#CC3CC3)cc1)[C@@H]2CO | 1.12 ± 0.007 | –
COc1ccc2c3c([C@@H](CO)N(Cc4ccncc4)C[C@]33CN(C3)C(=O)Nc3cccc(F)c3)n(C)c2c1 | 1 ± 0.16 | –
C[C@H]1CN([C@@H](C)CO)C(=O)c2cc(-c3ccc(C#N)cc3)cnc2O[C@H]1CN(C)Cc1cccnc1 | 1.05 ± 0.021 | –
COc1ccc2c3c([C@H](CO)N(Cc4cc(OC)cc(OC)c4)C[C@]33CN(C3)C(=O)CN3CCOCC3)n(C)c2c1 | 0.942 ± 0.055 | –
COc1ccc2c3c([C@H](CO)NC[C@]33CN(C3)S(=O)(=O)c3ccc(C)cc3)n(C)c2c1 | 1.09 ± 0.086 | –
O=C(Nc1cccc(Cl)c1)N1C[C@H]2[C@@H](c3ccccc31)[C@@H](CO)N2Cc1cccnc1 | 1.06 ± 0.092 | –
CN(C)C(=O)c1cccc(-c2ccc([C@@H]3[C@@H](CO)N4CCCCN(CC5CCOCC5)C[C@H]34)cc2)c1 | 0.983 ± 0.086 | –
COc1ccc2c3c([nH]c2c1)[C@@H](CO)N(C[C@]31CCN(CC1)S(=O)(=O)c1ccccc1)C(C)=O | 1.05 ± 0.045 | –
Cc1noc(C)c1NC(=O)N(C)C[C@@H]1Oc2ccc(NC(=O)Cc3cn(C)c4ccccc34)cc2CC(=O)N([C@@H](C)CO)C[C@@H]1C | 0.979 ± 0.081 | –
COc1ccccc1C#Cc1ccc([C@H]2[C@@H](C#N)N(C(=O)C3CCCCC3)[C@H]2CO)cc1 | – | 0.345 ± 0.087
C[C@H](CO)N1C[C@H](C)[C@@H](CN(C)C(=O)Nc2ccccc2F)Oc2cc(Br)ccc2S1(=O)=O | 1.01 ± 0.02 | –
CC(=O)N1[C@H](CO)[C@H](c2ccc(-c3ccc(C#N)cc3)cc2)C12CN(C(=O)C1CC1)C2 | 1.09 ± 0.04 | –
COc1cccc(-c2ccc3c(c2)[C@H]2[C@H](CCN2C(=O)c2ccccc2F)[C@@H](CO)N3C)c1 | 0.897 ± 0.028 | –
CN1c2ccc(Br)cc2[C@@H]2[C@@H](CCN2S(=O)(=O)c2ccccc2F)[C@@H]1CO | 0.96 ± 0.062 | –
Cc1ccc(S(=O)(=O)NCC[C@H]2CC[C@H](NC(=O)c3cccnc3)[C@H](CO)O2)cc1 | 1.06 ± 0.085 | –

Structure (SMILES) | viability index [1] | viability index (library set: Broad Institute Blood Stage)
COCC#Cc1ccc([C@@H]2[C@H](C#N)N(C(=O)Cc3ccccc3)[C@H]2CO)cc1 | 1.12 ± 0.056 | –
CCc1csc(N2[C@@H](C#N)[C@@H](c3ccccc3C3=CCCC3)[C@@H]2CO)n1 | 1.11 ± 0.087 | –
Cc1noc(C)c1NC(=O)N(C)C[C@@H]1OCc2cnnn2CCCC(=O)N([C@H](C)CO)C[C@H]1C | 1.09 ± 0.046 | –
C[C@H](CO)N1C[C@H](C)[C@H](CN(C)C(=O)[C@@H](Cc2ccccc2)N(C)C)OCc2ccccc2-c2c(n(C)c3ccccc23)C1=O | 0.9723 ± 0.0017 | –
CCN(C[C@@H]1[C@@H](c2ccccc2)[C@H](CO)N1C(=O)COC)S(C)(=O)=O | 1.03 ± 0.11 | –
C[C@H](CO)N1C[C@H](C)[C@@H](CN(C)C(=O)Nc2cccc3ccccc23)Oc2c(NC(=O)C3CCOCC3)cccc2C1=O | 1.05 ± 0.08 | –
C[C@@H]1CN([C@@H](C)CO)C(=O)c2cc(NC(=O)Nc3ccccc3)ccc2O[C@H]1CN(C)Cc1ccccc1 | 0.979 ± 0.015 | –
CO[C@H]1CN(C)C(=O)c2cc(NC(C)=O)ccc2OC[C@@H](C)N(C(=O)Cc2ccccn2)C[C@@H]1C | 1.06 ± 0.017 | –
C[C@H]1CCCCO[C@@H](CN(C)C(=O)CCCN(C)C)[C@@H](C)CN([C@@H](C)CO)C(=O)c2cc(NS(=O)(=O)c3ccc(Cl)cc3)ccc2O1 | 1.11 ± 0.074 | –
COc1ccc(S(=O)(=O)Nc2ccc3c(c2)C(=O)N([C@@H](C)CO)C[C@H](C)[C@@H](CN(C)C(=O)Nc2c(C)noc2C)OCCCC[C@H](C)O3)cc1 | 1.07 ± 0.19 | –
O=C(c1ccc(F)cc1)N1C[C@@H]2N[C@H](C1)[C@H]2c1ccc(-c2cccnc2)cc1 | 1.08 ± 0.12 | –
CN(C[C@H]1N[C@@H](CO)[C@H]1c1ccc(-c2ccc(F)cc2)cc1)C(=O)C1CCC1 | 0.971 ± 0.025 | –
CCC(=O)N1[C@@H](CO)[C@@H](c2ccccc2)C12CN(C(=O)CN1CCOCC1)C2 | 1.159 ± 0.0063 | –
CCCNC(=O)N1CC(=O)N2[C@@H](CO)[C@H](c3ccc(-c4ccc(F)cc4)cc3)[C@@H]2C1 | 1.02 ± 0.1 | –
CN(C)C(=O)C[C@@H]1C[C@@H]2c3cc(NC(=O)Nc4ccc(F)cc4)ccc3O[C@@H]2[C@H](CO)O1 | 1.13 ± 0.093 | –
C[C@@H]1CN([C@H](C)CO)C(=O)c2cc(NC(=O)Nc3ccc4c(c3)OCO4)ccc2O[C@@H](C)CCCCO[C@@H]1CN(C)S(=O)(=O)c1ccccc1 | 1.07 ± 0.069 | –
CN1C[C@@H](O)COC[C@H]2O[C@@H](CC(=O)NC3CCCC3)CC[C@@H]21 | 1.1 ± 0.047 | –
